Numbering of substitutions follows the chain as printed. This is one part of the list.
B1: chr1:150220393:150220494:-|3pUTR|ENSG00000143401|msi1_unk|FALSE|overlapping (ssRNA)
RNA: GGGAGUUCUACAGUCCGACGAUCAUUGUAUGUAGAGAAAAAUUUUCAUUGACUCCCAUUGUGGAAUUCCCUAGCAAUUUAUUUAGACUUAAUUUUUUAAAUUCAAGCUUACUGUAUUAGUCAUUUUUAGCCCAUAAUUAAAACCAACAGAGGAUUGAGCAUCA
B2: chr2:182777146:182777247:+|3pUTR|ENSG00000077232|msi1|total|mutant (ssRNA)
RNA: GGGAGUUCUACAGUCCGACGAUCUGAAGAUGAAGAAAAAGUUUAAAAGAAAUUCUGACAGAUGACAUCAGAAGACACCUAUUCCGAAUGUUACAUUUAUGAUGGGAAUGAAUGAACAUUAUCUCCGACUUGCAGUUGUACUGCCAACAGAGGAUUGAGCAUCA
B3: chr11:59829272:59829545:-|three_prime_utr|ENSG00000134812|control|control|control (ssRNA)
RNA: GGGAGUUCUACAGUCCGACGAUCAAAAAGCGAAUGCCUGUGAUGCUACCAUAUUCCUGGUAAAAACAUGGAGAACCACUAUGUAGAAUAAAAAUGCAAAGUUCACUGGAGUCUCAACAUCUAUGACUCAUGAAAAUAAAAUUUCAACAGAGGAUUGAGCAUCA
B4: ENSG00000139428:stop:overlap|stop_codon|ENSG00000139428|stop_codon|NA|stop_codon (ssRNA)
RNA: GGGAGUUCUACAGUCCGACGAUCUAUUACUAUUCUUAACACUUACCUGUUCCUGGCUACCAUUUCUCCAUGGCGGGCCUGACUAGGUUUGCUCUGGAAUUAGUCACAGAAAAGGGCCAUACAUUUGCCGAAGAGCUUCAGAAACAACAGAGGAUUGAGCAUCA
B5: chr22:35662008:35662068:+|3pUTR|ENSG00000221963|msi1_unk|total|mutant (ssRNA)
RNA: GGGAGUUCUACAGUCCGACGAUCUGAGCAACUUUUAAUUAUUCUCCUGUCCUGCAAUAUGAGUUAAUCUUCUCUGAUCGAUGCCGAUUCCAGGAAGGGGUGUCCAGGACAAUUACCUUCCUUCUGGAGAAACUUCCCUUAAUCCAACAGAGGAUUGAGCAUCA
B6: chr1:15430058:15430159:+|3pUTR|ENSG00000142634|msi1|total|mutant (ssRNA)
RNA: GGGAGUUCUACAGUCCGACGAUCCCUGGAAGCUACGCGGACUUGCAGAGGUUUUAUUUUUUGGCCUCCGAAUCUGCAGAAAUCCGGAGGCACCGAGCCCAGCGCAGCAGCCUCGGACCCGGAUUGCGUUUGCCUCCGCGGAUACAACAGAGGAUUGAGCAUCA
B7: chr1:109313209:109313310:-|3pUTR|ENSG00000134243|msi1|FALSE|unique (ssRNA)
RNA: GGGAGUUCUACAGUCCGACGAUCCAGGGCAAUAUUUUUAACUUGGGGCAGGAAGAAGGGAGCAGCAGAGAAUUGACUAGAUAUAGCACCUAUUAAAAGAGAACUCUUGCUUCUUCUGAGAUUUUUCAAGCUGUGCUUUGUGUGCAACAGAGGAUUGAGCAUCA
B8: chr6:125889563:125889680:+|CDS|ENSG00000111912|unk|FALSE|unique (ssRNA)
RNA: GGGAGUUCUACAGUCCGACGAUCCAAGCAGUCUGGUUCGCCAGAAAGCCGAGUAGAAAACACACUGAACAUACAUGAAGAUUUAGAUAAAGUUAAACUCAUUGAAUAUUACCUGACUAAGAACAAAGAAGGGCCACAGGUAUCCAACAGAGGAUUGAGCAUCA
B9: chr9:125437660:125437767:-|3pUTR|ENSG00000119487|unk|total|mutant (ssRNA)
RNA: GGGAGUUCUACAGUCCGACGAUCUGAUGUCCUUACUGUCCCCAGCCAGGGCCGGGGACCGGUGUUUCACUGAGGACCUGCAUCCGAAACAUUUUUUAAAUUGUUGUACAGGAAGAGAUGUGUCUAAAACAGCAUCUUAAAGCUCAACAGAGGAUUGAGCAUCA
B10: chr1:109062750:109062855:-|3pUTR|ENSG00000197780|unk|FALSE|unique (ssRNA)
RNA: GGGAGUUCUACAGUCCGACGAUCGCUUUCAGUAGCAGGAAUGGCAUUGUUUAAAAAGCUGAUGGCAGGGUAAGCAUUUGGGUUAGUGUUUUAUUAACAUAUUUGUAAGUACUUGUUCAUUGUGGAAAUGUGUCCUUGACUAAACAACAGAGGAUUGAGCAUCA
B11: chr14:22906194:22906368:-|CDS|ENSG00000100461|control|control|control (ssRNA)
RNA: GGGAGUUCUACAGUCCGACGAUCAGCCGAAGUCCAGGUCGGCAGUGUCGUCACCGUAGCCGUAGCUGGGAUCGUCGACAUGGUAGUGAGUCGCGAAGUCGGGACCAUCGUCGUGAGGAUCGUGUGCAUUACAGGAGUCCUCCACAACAGAGGAUUGAGCAUCA
B12: chr9:69711526:69711627:-|3pUTR|ENSG00000188647|unk|total|mutant (ssRNA)
RNA: GGGAGUUCUACAGUCCGACGAUCGAACUGCUGCCGUCUUCUGCAAUCAGUCUCUGUAUUGGUAUAUCCAGUACUAUCGGGUUCCGGUUCUUUUUAUUUUUCCUUAAAUCUUACUUGUUUCCCGCGUCUUAAGAGUGGUAAUGGCAACAGAGGAUUGAGCAUCA
B13: chr2:73226876:73226918:+|3pUTR|ENSG00000135632|msi1_unk|FALSE|overlapping (ssRNA)
RNA: GGGAGUUCUACAGUCCGACGAUCAUCUUUAGGGUCUCCACAGACUAACAUUGAAGUCUUCCAGAAACCUCGAGGAGCUGGGCUAGAUACUUCGAGAGUAGCCCUGUCUUGUCCCCUCCUACCCCCAGAUUAGCACCACCCCUCCAACAGAGGAUUGAGCAUCA
B14: ENSG00000136451:be:win_1751|3pUTR|ENSG00000136451|bound_else_gene|NA|bound_elsewhere_windowed (ssRNA)
RNA: GGGAGUUCUACAGUCCGACGAUCUCACUGGACCACUUUAGUUUAAUCAGAAAUUCCUUUUAGCUGACAACAUUGCUUAAACAGGAUAGUAGUUGGCAAGAUGAAAUGCCAGAAUUAAAACCAAUCAUAAGUAGAACCCACUUCCAACAGAGGAUUGAGCAUCA
B15: chr1:211748167:211748268:-|3pUTR|ENSG00000123684|msi1|FALSE|unique (ssRNA)
RNA: GGGAGUUCUACAGUCCGACGAUCGUACUGCAUCAGUGAGAUGAGUAGGGUUUUUGUUUGGGAUUGUAAGACUAUUAAGAUCCUAGUAAGUCAGUGGUAGUUUACUGUGAUGUGAGCAUUGUAGAUUCCCCCGUUGUCACUAAUCAACAGAGGAUUGAGCAUCA
B16: chr1:214641902:214642005:+|CDS|ENSG00000117724|unk|FALSE|bound_elsewhere (ssRNA)
RNA: GGGAGUUCUACAGUCCGACGAUCAGAAAUCAAUGUAAUUUUAAACCUCAGAUGGAUCUUGAAGUUAAAGAAAUUUCUCUAGAUAGUUAUAAUGCGCAGUUGGUGCAAUUAGAAGCUAUGCUAAGAAAUAAGGAAUUAAAACUUCAACAGAGGAUUGAGCAUCA
B17: chr16:23068607:23068708:-|CDS|ENSG00000103404|msi1|FALSE|unique (ssRNA)
RNA: GGGAGUUCUACAGUCCGACGAUCCCUGCCACAAGGAGCCCUUUCCCACCUGGGAAGAGCAGGACUUCAGACCACAGCUUGAGUAGAGAGGGCUCCAGACAAAGCUUGGGUUCUGACAGAGCCAGCGCCACCUCCACCUCCAAACAACAGAGGAUUGAGCAUCA
B18: ENSG00000070961:be:win_3801|3pUTR|ENSG00000070961|bound_else_gene|NA|bound_elsewhere_windowed (ssRNA)
RNA: GGGAGUUCUACAGUCCGACGAUCUUAUUUUUUUAAAAAAAAAAAAGCAAAGCUUUCUGCCAGACUGAGGGUGCUUUUUGGGGGGUGGGAGAAAUGAACUGACAGAUAAACAGUAACUCAGCGUAAGUGACCUGUGGAUCAUCACAACAGAGGAUUGAGCAUCA
B19: chr16:23068607:23068708:-|CDS|ENSG00000103404|msi1|total|mutant (ssRNA)
RNA: B17 RNA with U83C, A84C
B20: chr7:77749912:77750028:+|CDS|ENSG00000187257|unk|total|mutant (ssRNA)
RNA: GGGAGUUCUACAGUCCGACGAUCUGCAGCUUUCUACGUGAUGGGUAUUGUUCAUGGGGCAGCUACUUAUUUACCUGACUUUUCCGACUAUUUUUCAUUUAAUUUUCCCAAUUCACCAGUGAAAAUGGAGAUAUUGGGAAAGAACAACAGAGGAUUGAGCAUCA
B21: chr11:118750849:118750950:-|3pUTR|ENSG00000110367|msi1|FALSE|unique (ssRNA)
RNA: GGGAGUUCUACAGUCCGACGAUCAUUCUAGAAAGUACUUUGGCCUCGUGCUGUAGAGAGCAGAUUUCUAUGGUACCCUGUGUUAGUAAAGGGGCCCAGAAAUCUGGGAUGUACUGUUUGCUGCCACACUGUCUCAUCUAGUACCAACAGAGGAUUGAGCAUCA
B22: chr14:74902662:74902763:+|3pUTR|ENSG00000119689|msi1|FALSE|unique (ssRNA)
RNA: GGGAGUUCUACAGUCCGACGAUCCCCCUGGGGACCAUGUGAUUAAGUUCCUAUCUUUUGAAAGUUUGUUCUGCAGAGACUUCUAGGAGGAUGCUGUGCCUCCCAAGCUCAGAGCAGCCUCUGUCCUGGCUGUGCACAUUCUCCCAACAGAGGAUUGAGCAUCA

Each binder was assayed against MSI1 full-length (mouse, UniProt Q61474 1-362) (assay: nsRBNS (natural sequence RNA bind-n-seq); RBNS binding buffer (assumed for nsRBNS): 25 mM Tris pH 7.5, 150 mM KCl, 3 mM MgCl2, 0.01% Triton X-100, 500 ug/ml BSA, 20 U/ml SUPERase-In, 4 C; UNK is unkempt and MSI1 is Musashi-1; names of the RNAs are library labels; protein concentration not given here; high values mean tight binding).
Chain of UniProt Q61474 (Q61474 whole entry): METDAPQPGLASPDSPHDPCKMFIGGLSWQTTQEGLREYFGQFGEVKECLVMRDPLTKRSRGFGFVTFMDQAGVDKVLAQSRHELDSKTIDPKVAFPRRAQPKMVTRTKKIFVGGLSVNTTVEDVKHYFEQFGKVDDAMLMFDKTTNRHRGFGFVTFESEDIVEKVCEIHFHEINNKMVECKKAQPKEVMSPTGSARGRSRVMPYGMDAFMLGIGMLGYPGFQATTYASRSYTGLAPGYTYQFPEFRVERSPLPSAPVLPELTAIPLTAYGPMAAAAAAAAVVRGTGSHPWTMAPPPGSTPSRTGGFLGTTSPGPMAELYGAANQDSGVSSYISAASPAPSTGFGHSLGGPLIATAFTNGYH
B1 gave a binding signal of 61.8 enrichment R.
In the case of B2, the binding signal is reported as 0.289 enrichment R.
Binder B3 has a binding signal of 0.42 enrichment R.
Work on B4 yielded a binding signal of 18.8 enrichment R.
Work on B5 yielded a binding signal of 0.383 enrichment R.
With B6 the binding signal was 0.342 enrichment R.
Binder B7 has a binding signal of 1.37 enrichment R.
Binder B8 has a binding signal of 2.02 enrichment R.
In the case of B9, the binding signal is reported as 0.291 enrichment R.
B10 was tested, and the binding signal was 0.742 enrichment R.
B11 was tested, and the binding signal was 0.816 enrichment R.
B12 was tested, and the binding signal was 0.401 enrichment R.
B13 showed a binding signal of 1.25 enrichment R.
In the case of B14, the binding signal is reported as 6.85 enrichment R.
Binder B15 has a binding signal of 0.944 enrichment R.
B16 gave a binding signal of 0.847 enrichment R.
Binder B17 has a binding signal of 0.445 enrichment R.
B18 was tested, and the binding signal was 0.497 enrichment R.
With B19 the binding signal was 0.445 enrichment R.
With B20 the binding signal was 0.345 enrichment R.
With B21 the binding signal was 2.81 enrichment R.
With B22 the binding signal was 0.338 enrichment R.

Reference: article PMC12136788
